Laboratory results: paper PMC13186710, “Structural mechanism for noncanonical GPCR signaling in the Hedgehog pathway” (Nature Structural & Molecular Biology, 2026)

Target: WT, nonmyristoylated mouse PKA catalytic subunit alpha (mouse, UniProt P05132)
Experiment: HDX-MS; complex disulfide-trapped (SMO L637C to PKA-C C199) and gel-filtered, against the free proteins; 20 mM HEPES pH 8.0, 150 mM NaCl, 0.025% GDN, 1 mM ATP, 10 mM MgCl2, 25 °C; 1, 5, 10 min; SAG21k for pSMO, KAAD cyclopamine for nonphosphorylated SMO
Details: both partners purified

B1: GRK2-phosphorylated FLAG-tagged mouse Smoothened ([…]) L637C (receptor)
chain: not shown
modifications: GRK2/3 phosphorylation sites pS560, pS594, pT597, pS599, pS615, pS642, pT644, pT648
notes: Smoothened (SMO), mouse, […], P+2 leucine changed to cysteine; the HDX-MS and cryo-EM samples were; also called pSMO-L637C; SMO L637C; not shown: FLAG, N-terminal, kept
- binding result: binds

B2: Nonphosphorylated FLAG-tagged mouse Smoothened ([…]) L637C (receptor)
chain: not shown
notes: Smoothened (SMO), mouse, […], P+2 leucine changed to cysteine; HDX-MS runs with nonphosphorylated SMO were done with the inverse agonist KAAD cyclopamine (1 uM); also called nonphosphorylated SMO-L637C; SMO (in SMO-PKA-C versus pSMO-PKA-C); not shown: FLAG, N-terminal, kept
- binding result: binds
